PubChem BioAssay AID463173 (ICCB-Longwood Screening Facility, Harvard Medical School, 2010)
Hit rate of the full screen: of about 52,000 compounds, about 1,700 (3.3%) were called active. Cut-off read from the data, not from the text of the source: active = survival mostly below about 52% (no sharp cut-off); inactive = mostly above about 56%. The list shows a part of the results.

Test system: Wild type
Assay: S. aureus survival, RN4220 and DeltatarO strains – OD600, teichoic acid synthesis inhibitors, primary screen (AID 463173)
Settings: S. aureus RN4220 wild type/DeltatarO growth, OD600, 18 h, stronger effect = lower value, screened at 18.75 µg/mL (by protocol)

Row | Structure (SMILES) | survival
1 | Cc1cccc(COc2ccc(-c3cc(C(F)(F)F)n4nc(C)cc4n3)cc2)c1 | inactive: 38%
2 | Cc1cn2c(=O)cc(COC(=O)COc3ccc(F)cc3)nc2s1 | inactive: 81%
3 | COc1cccc(-c2nn(C)c3sc(C(=O)N4CCN(c5cccc(C(F)(F)F)c5)CC4)cc23)c1 | inactive: 75%
4 | COc1ccccc1N(CC(=O)NCCSc1ccccc1)S(=O)(=O)c1ccc(C)cc1 | inactive: 74%
5 | Cc1ccc(NC(=O)CCNS(=O)(=O)c2cccs2)cc1F | inactive: 64%
6 | COc1cccc(CCNC(=O)c2cnc3sc(N4CCCC4)nn3c2=O)c1 | inactive: 77%
7 | Cc1cccc(-n2c3nc(=O)n(C)c(=O)c-3cc3c(C)nn(-c4ccccc4)c32)c1C | inactive: 83%
8 | CSc1ncc2c(n1)-c1ccccc1N(Cc1ccccc1C)S2(=O)=O | inactive: 87%
9 | COc1ccc(-n2c(=O)c3c(c4cc(OC)ccc4n3C)n(Cc3c(F)cccc3Cl)c2=O)cc1 | inactive: 93%
10 | COc1ccc(-c2cc(C(N)=O)on2)c(OC)c1 | inactive: 114%
11 | COC1(C(F)(F)F)NC(=O)N(c2ccc(F)cc2)C1=O (centres undefined) | inactive: 68%
12 | CCOC(=O)c1cnn(-c2cccc(Cl)c2)c1C1CCN(C(=O)OC(C)(C)C)CC1 | inactive: 57%
13 | Cc1ccc(OCCSc2nc3ccc(NC(=O)COc4ccc(C)cc4)cc3s2)cc1 | inactive: 91%
14 | CCOC(=O)C1=C(CN(CC)Cc2ccccc2)NC(=O)NC1c1ccc(Cl)cc1 (centres undefined) | inactive: 69%
15 | COc1ccc(NC(=O)N2CCC(n3c(C)nc4cccnc43)CC2)cc1OC | inactive: 69%
16 | COc1ccc(Cl)cc1NC(=O)N1CCC2(CC1)Oc1ccccc1C(=O)N2Cc1ccc(F)cc1 | inactive: 80%
17 | CSc1nc2sc3c(c2c(=O)n1-c1ccc(C)cc1)CCCC3 | inactive: 51%
18 | CC1(C)Cc2c(sc(/N=C/N3CCCC3)c2C#N)C(C)(C)N1 | inactive: 110%
19 | Fc1ccc(NCc2nc3ccccc3n2CCOc2ccccc2Cl)cc1 | inactive: 95%
20 | CC1CCc2c(sc3nnn(CC(=O)Nc4ccccc4Cl)c(=O)c23)C1 (centres undefined) | inactive: 77%

Row | Structure (SMILES) | survival
21 | CCCCC(=O)Nc1cc(-c2cn3cccnc3n2)ccc1C | inactive: 135%
22 | CCOc1ccc(-c2c(C)nn3c(C)c(C(=O)NC(C)c4ccccc4)cnc23)cc1OCC (centres undefined) | inactive: 75%
23 | O=C1NCN(c2ccccc2)C12CCN(c1nnnn1-c1ccccc1)CC2 | inactive: 102%
24 | CCCn1cc(S(=O)(=O)c2ccc(OCC)cc2)c(=O)c2cc(C)ccc21 | inactive: 88%
25 | CCN(CC)c1ccc2c(COC(C)=O)cc(=O)oc2c1 | inactive: 115%
26 | Cc1ccc(CCC(=O)Nc2ccc(C(C)C)cc2)o1 | inactive: 112%
27 | O=C(Cn1ccn(-c2ccc(F)c(F)c2)c(=O)c1=O)NCc1ccccc1 | inactive: 84%
28 | O=C(CCSCc1ccccc1Cl)NCCc1ccccc1 | inactive: 74%
29 | Cc1c(-c2cccc(NC(=O)Cc3ccccc3)c2)nc2ncccn12 | inactive: 73%
30 | Cc1ccc(OCCSc2nc3ccccc3n2CC(=O)N2CCOCC2)cc1C | inactive: 84%
31 | COc1ccc(CNc2nc(-c3ccccc3)nn2C(=O)c2ccccc2OC)cc1 | inactive: 84%
32 | COc1cc(Cl)c(S(=O)(=O)N2CCN(c3c(C)cccc3C)CC2)cc1Cl | inactive: 92%
33 | COCCn1c(C)nnc1SCC1CCCO1 (centres undefined) | inactive: 127%
34 | CN(Cc1ccccc1)C(=O)c1c[nH]c2ccc(S(=O)(=O)Nc3ccccc3F)cc2c1=O | inactive: 84%
35 | CCOC(=O)c1cc2c(=O)n3ccccc3nc2n(CC2CCCO2)c1=NC(=O)c1ccc(OCC)cc1 (centres undefined) | inactive: 81%
36 | CCOc1cc(C(=O)N2CC(=O)Nc3ccc(F)cc3C2c2ccccc2)cc(OCC)c1OCC (centres undefined) | inactive: 75%
37 | Cc1cc(C=C(C#N)C#N)c(C)n1-c1ccc(N2CCOCC2)cc1 | inactive: 122%
38 | CCn1c(=O)c(C(=O)Nc2nccs2)c(O)c2ccccc21 | inactive: 103%
39 | CC(C)OCCCNC(=O)Cn1c(-c2cccs2)cc2cc(F)ccc21 | inactive: 91%
40 | COc1ccc(N2CCN(CCCNC(=O)c3sc4ncccc4c3-n3cccc3)CC2)cc1 | inactive: 78%

Row | Structure (SMILES) | survival
41 | COc1cc2nc(NCCc3ccc(Cl)cc3)n3nc(-c4ccccc4)nc3c2cc1OC | inactive: 74%
42 | CCN(C(=O)c1nn(C)c2c1CSc1ccccc1-2)c1cccc(C)c1 | inactive: 106%
43 | COc1ccc(NC(=O)Cn2nc(C)c3c(C)n(-c4ccccc4)nc3c2=O)cc1OC | inactive: 47%
44 | COc1cc(C(=O)OCc2cc(=O)n3ccsc3n2)cc(OC)c1OC | active: -4%
45 | Oc1ccc(NC(=S)Nc2ccc(O)cc2)cc1 | inactive: 106%
46 | CCOc1cc(-c2cc(C(=O)O)c3c(-c4ccccc4)[nH]nc3n2)ccc1O | inactive: 61%
47 | COc1ccc(S(=O)(=O)NCC(c2ccco2)S(=O)(=O)c2cccs2)cc1OC (centres undefined) | inactive: 79%
48 | Cc1ccc(NC(=O)N(Cc2c[nH]c3ccccc23)C2CCCCCC2)cc1C | inactive: 54%
49 | O=c1n(Cc2ccc([N+](=O)[O-])cc2)c2ccccc2c2nc(-c3ccccc3)nn12 | inactive: 152%
50 | COc1ccc(CCNC(=O)Cc2c(C)c3ccc(O)c(C)c3oc2=O)cc1OC | inactive: 79%
51 | O=C(OCCN1CCOCC1)c1ccccc1 | inactive: 110%
52 | CCOc1ccc(NC(=O)c2cccc3c(=O)c4c([nH]c23)CCCC4)cc1 | inactive: 79%
53 | Cc1ccc(Cn2cnc3nc4c(cc3c2=O)CCCC4)cc1 | inactive: 55%
54 | Cc1cc(C)cc(-n2c(SCC(=O)Nc3ccccc3F)nc3c(oc4ccccc43)c2=O)c1 | inactive: 82%
55 | Cc1c(NC(=O)Nc2ccccc2C(F)(F)F)c(=O)n(-c2ccccc2)n1C | inactive: 76%
56 | CCOc1ccc(C2=C(C(C)=O)Sc3nnc(C)n3N2C(C)=O)cc1 | inactive: 69%
57 | Cn1c(=O)n(C)c2cc(CNCc3ccc(F)cc3)ccc21 | inactive: 86%
58 | Cc1ccc(C(=O)N2CCc3cc(CNC(=O)c4ccccc4F)ccc32)cc1 | inactive: 73%
59 | COc1ccc(CCNC(=O)CCN2N=C(c3ccccc3)CCC2=O)cc1OC | inactive: 72%
